Binding signal data for 12 sequences are collected here from PMC5700166.

The entries are a selection whose mix differs from that of the whole data set. The list includes weakly bound sequences.

Holding throughout (assay): protein-binding microarray (PBM)
Holding throughout (settings): PBM: ~300 nM protein, 6 mM HEPES pH 7.8, 80 mM KCl, 0.5 mM EDTA, 0.5 mM EGTA, 6% glycerol, 35 ng/ul poly-dIdC, 1% milk, 1 h, room temperature; Ap Aiptasia and Nv Nematostella (sea anemones) / Co Capsaspora / Aq Amphimedon (sponge) / Dm Drosophila / Hu human; RHD is the Rel homology domain; high values mean tight binding; most listed sequences are background and not binding sites; double strand, one strand shown

For one assay, the target named is T1, GST-Ap-NF-kB RHD (UniProt A0A913YAJ5).
T1 sequence: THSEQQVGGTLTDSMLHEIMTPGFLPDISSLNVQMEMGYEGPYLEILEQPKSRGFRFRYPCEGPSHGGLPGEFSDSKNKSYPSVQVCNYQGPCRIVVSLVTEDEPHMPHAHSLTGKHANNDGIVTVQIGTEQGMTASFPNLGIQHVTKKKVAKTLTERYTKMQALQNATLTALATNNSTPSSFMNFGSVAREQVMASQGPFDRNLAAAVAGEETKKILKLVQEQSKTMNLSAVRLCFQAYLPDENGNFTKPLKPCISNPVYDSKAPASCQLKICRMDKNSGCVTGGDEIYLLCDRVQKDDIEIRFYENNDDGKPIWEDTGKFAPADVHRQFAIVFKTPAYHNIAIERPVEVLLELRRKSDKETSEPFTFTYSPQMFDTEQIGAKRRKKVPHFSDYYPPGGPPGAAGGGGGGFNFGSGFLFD

The target of assay [1] is T2, GST-Nv-NF-kB (Cys allele) (UniProt E5G601).
T2 sequence: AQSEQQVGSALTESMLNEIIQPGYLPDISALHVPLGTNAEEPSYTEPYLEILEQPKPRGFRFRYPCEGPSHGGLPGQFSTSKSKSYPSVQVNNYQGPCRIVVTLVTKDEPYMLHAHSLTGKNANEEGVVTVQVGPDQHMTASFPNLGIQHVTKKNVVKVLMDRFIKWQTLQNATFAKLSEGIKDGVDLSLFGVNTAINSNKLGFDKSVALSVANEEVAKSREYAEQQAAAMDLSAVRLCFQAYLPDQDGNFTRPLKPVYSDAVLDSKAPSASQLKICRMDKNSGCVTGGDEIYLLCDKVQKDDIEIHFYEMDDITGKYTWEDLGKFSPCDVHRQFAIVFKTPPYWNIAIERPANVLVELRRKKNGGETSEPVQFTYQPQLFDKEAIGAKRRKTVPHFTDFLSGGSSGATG

A further assay has as its target T3, GST-Co-NF-kB (UniProt F1ARL5).
T3 sequence: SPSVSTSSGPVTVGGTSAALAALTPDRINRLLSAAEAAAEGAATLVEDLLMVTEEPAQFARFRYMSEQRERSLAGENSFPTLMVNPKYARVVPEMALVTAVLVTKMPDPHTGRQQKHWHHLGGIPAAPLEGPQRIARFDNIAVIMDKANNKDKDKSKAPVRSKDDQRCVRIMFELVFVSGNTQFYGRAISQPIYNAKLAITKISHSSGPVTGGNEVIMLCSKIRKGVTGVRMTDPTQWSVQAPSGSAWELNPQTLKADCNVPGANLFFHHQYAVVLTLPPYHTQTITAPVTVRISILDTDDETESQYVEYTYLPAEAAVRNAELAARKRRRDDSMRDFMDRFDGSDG

The target of the next assay is T4, GST-Dm-Relish (UniProt Q94527).
T4 sequence: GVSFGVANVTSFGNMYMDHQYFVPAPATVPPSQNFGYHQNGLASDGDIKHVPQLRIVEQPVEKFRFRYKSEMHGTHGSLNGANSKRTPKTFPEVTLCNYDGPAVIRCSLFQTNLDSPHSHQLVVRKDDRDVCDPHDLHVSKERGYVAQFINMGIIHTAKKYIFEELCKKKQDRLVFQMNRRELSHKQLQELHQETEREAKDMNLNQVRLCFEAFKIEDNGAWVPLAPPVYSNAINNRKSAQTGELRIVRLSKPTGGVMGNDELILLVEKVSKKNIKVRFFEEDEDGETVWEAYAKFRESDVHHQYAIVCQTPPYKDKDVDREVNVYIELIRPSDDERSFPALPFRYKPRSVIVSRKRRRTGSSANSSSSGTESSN

The target in a further assay is T5, GST-Aq-NF-kB (UniProt A9Y5G7).
T5 sequence: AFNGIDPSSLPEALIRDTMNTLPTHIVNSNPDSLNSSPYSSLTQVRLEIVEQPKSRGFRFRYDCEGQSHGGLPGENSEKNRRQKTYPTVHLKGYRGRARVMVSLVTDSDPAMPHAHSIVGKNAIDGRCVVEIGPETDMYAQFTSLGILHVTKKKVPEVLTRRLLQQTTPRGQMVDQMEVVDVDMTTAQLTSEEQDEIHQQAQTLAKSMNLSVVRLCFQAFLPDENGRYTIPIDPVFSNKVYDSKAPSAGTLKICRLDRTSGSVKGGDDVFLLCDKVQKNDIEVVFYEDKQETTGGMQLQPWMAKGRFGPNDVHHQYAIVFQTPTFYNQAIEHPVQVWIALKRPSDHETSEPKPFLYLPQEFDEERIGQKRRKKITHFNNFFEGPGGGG

For the sequence “CCGATTAACATCAAATAAATTCCTGATGTTAATCGGGTCTTGATTCGCTTGACGCTGCTG”, the binding signal was -0.293 z-score with GST-Ap-NF-kB RHD; 0.289 z-score in assay [1]; 0.149 z-score with GST-Co-NF-kB; 1.27 z-score in the assay with GST-Dm-Relish; 0.474 z-score with GST-Aq-NF-kB.
For the sequence “CCGATTAACATCAAAAACGTAGATGATGTTAATCGGGTCTTGATTCGCTTGACGCTGCTG”, the binding signal was -0.636 z-score with GST-Ap-NF-kB RHD; -0.272 z-score in assay [1]; 0.325 z-score with GST-Co-NF-kB; -0.299 z-score with GST-Dm-Relish; -0.469 z-score in the assay with GST-Aq-NF-kB.
Take “CCGATTAACATCACGGAGTTTCCTGATGTTAATCGGGTCTTGATTCGCTTGACGCTGCTG”: the binding signal with GST-Ap-NF-kB RHD was 0.0444 z-score; in assay [1] it was -0.223 z-score; with GST-Co-NF-kB, 0.491 z-score; with GST-Dm-Relish, 0.581 z-score; with GST-Aq-NF-kB, 3.34 z-score.
For “CCGATTAACATCAACGCGTAACTTGATGTTAATCGGGTCTTGATTCGCTTGACGCTGCTG”, the binding signal with GST-Ap-NF-kB RHD is -0.943 z-score; in assay [1], -0.734 z-score; in the assay with GST-Co-NF-kB, -0.586 z-score; in the assay with GST-Dm-Relish it was -0.74 z-score; with GST-Aq-NF-kB, -0.686 z-score.
The matching figures for “CCGATTAACATCACCATGATCGATGATGTTAATCGGGTCTTGATTCGCTTGACGCTGCTG”: -0.246 z-score, -0.287 z-score, 0.193 z-score, -0.0994 z-score and -0.32 z-score.
In the same order, the values of “CCGATTAACATCAGTGGTCATTCTGATGTTAATCGGGTCTTGATTCGCTTGACGCTGCTG” are -0.37 z-score, -0.458 z-score, -0.144 z-score, -0.362 z-score and -0.455 z-score.
The matching figures for “CCGATTAACATCAAATCCAACACTGATGTTAATCGGGTCTTGATTCGCTTGACGCTGCTG”: -0.818 z-score, 0.122 z-score, 0.0814 z-score, -0.498 z-score and -0.312 z-score.
For “CCGATTAACATCATAAAAGTTCTTGATGTTAATCGGGTCTTGATTCGCTTGACGCTGCTG”, the binding signal in the assay with GST-Ap-NF-kB RHD is -0.582 z-score; in assay [1], 0.0857 z-score; with GST-Co-NF-kB it was -0.0929 z-score; with GST-Dm-Relish it was 0.299 z-score; in the assay with GST-Aq-NF-kB, 0.196 z-score.
With “CCGATTAACATCATGCATGCCGGTGATGTTAATCGGGTCTTGATTCGCTTGACGCTGCTG”, the binding signal in the assay with GST-Ap-NF-kB RHD was 0.113 z-score; in assay [1] it was -0.206 z-score; with GST-Co-NF-kB it was -0.698 z-score; in the assay with GST-Dm-Relish it was 0.966 z-score; in the assay with GST-Aq-NF-kB it was 0.0597 z-score.
For the sequence “CCGATTAACATCATTCACCTTGGTGATGTTAATCGGGTCTTGATTCGCTTGACGCTGCTG”, the binding signal with GST-Ap-NF-kB RHD is 0.279 z-score; in assay [1], -0.0344 z-score; in the assay with GST-Co-NF-kB, 0.13 z-score; with GST-Dm-Relish, 0.601 z-score; in the assay with GST-Aq-NF-kB, -0.00552 z-score.
For the sequence “CCGATTAACATCAATTTTGTGACTGATGTTAATCGGGTCTTGATTCGCTTGACGCTGCTG”, the binding signal is -1.49 z-score with GST-Ap-NF-kB RHD; -0.462 z-score in assay [1]; -0.494 z-score in the assay with GST-Co-NF-kB; -0.392 z-score with GST-Dm-Relish; -0.473 z-score in the assay with GST-Aq-NF-kB.
In the same order, the values of “CCGATTAACATCAGGTTAAGAGGTGATGTTAATCGGGTCTTGATTCGCTTGACGCTGCTG” are 0.551 z-score, -0.0529 z-score, 0.794 z-score, -0.18 z-score and 0.107 z-score.
